Laboratory results as given in the RNAGym collection of RNA variant scans (doi:10.1073/pnas.2313332121).
Variants at the background level are over-represented here.

B1: TPR 5TU (parent)
chain: GGAUCUUCUCGAUCUAACAAAAAAGACAAAUCUGCCACAAAGCUUGAGAGCAUCUUCGGAUGCAGAGGCGGCAGCCUUCGGUGGCGCGAUAGCGCCAACGUUCUCAACUAUGACACGCAAAACGCGUGCUCCGUUGAAUGGAGUUUAUCAUG

Variants of: B1
Assay: polymerase ribozyme fitness, log enrichment relative to wild type (log ratio); higher = more active; in vitro selection for triplet polymerase activity
How it was run: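 Input and output libraries were sequenced on Illumina after a single in vitro selection round, run in triplicate on PCR-built, transcribed mutant libraries of each subunit of a heterodimeric triplet polymerase ribozyme. Selection annealed libraries to a biotinylated primer, the partner subunit and triplets, incubated them frozen at −7 °C, then gel-excised extended constructs for streptavidin-bead capture and RT-PCR. Genotypes with ≥10 input reads and ≥1 read per output were kept. Fitness is the logarithm, taken in base 2, of genotype enrichment divided by wild-type enrichment, using inverse-variance-weighted replicate averages.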

Row | Variant | polymerase ribozyme fitness (log ratio)
1 | GGAUCUUCUCGAUCUAACAAAAAAGACAAAUCUGCCACAAAGCUUGAGAGCAUCUUCGGAUGCAGAGGCGGCAGCCUUCGGUGGCGCGAUAGCGCCAACGUUCGCAACUAUGACACGCAAAACGCGUGCUCCGUCGAAUGGACUUUAUCAUG [U104G U135C G143C] | -3.79
2 | GGAUCUUCUCGAUCUAACAAAAAAGACAAAUCUGCCACAAAGCUUGAGAGCAUCUUCGGAUGCAGAGGCGGCAGCCUUCGGUGGCGCGAUAGCGCCAACGUUCUAAACUAUGACACGCAAAACGCGUGCUCCGUUGCAGGGAGUUUAUCAUG [C105A A137C U139G] | ≤ -4.2
3 | GGAUCUUCUCGAUCUAACAAAAAAGACAAAUCUGCCACAAAGCUUGAGAGCAUCUUCGGAUGCAGAGGCGGCAGCCUUCGGUGGCGCGAUAGCGCCAACGUUCUGAACUAUGACACGCGAAACGCGUGCUCCGUUGAAUGGAGUUUAUCAGG [C105G A119G U151G] | ≤ -4.2
4 | GGAUCUUCUCGAUCUAACAAAAAAGACAAAUCUGCCACAAAGCUUGAGAGCAUCUUCGGAUGCAGAGGCGGCAGCCUUCGGUGGCGCGAUAGCGCCAACGUUCUGAACUAUGACACGCAAAACGCGUGCUCCGCUGAAUUGAGUUUAUCAUG [C105G U134C G140U] | -4.18
5 | GGAUCUUCUCGAUCUAACAAAAAAGACAAAUCUGCCACAAAGCUUGAGAGCAUCUUCGGAUGCAGAGGCGGCAGCCUUCGGUGGCGCGAUAGCGCCAACGUUCUGAACUAUGACACGCAAAACGCGUGCUCCGUUGAAUGGAGUUUAUCAGG [C105G U151G] | ≤ -4.2
6 | GGAUCUUCUCGAUCUAACAAAAAAGACAAAUCUGCCACAAAGCUUGAGAGCAUCUUCGGAUGCAGAGGCGGCAGCCUUCGGUGGCGCGAUAGCGCCAACGUUCUCCACUAUGACACGCAAAACGCGUGCUCCGUUGAAUGGAGUUUAUCAUG [A106C] | -0.467
7 | GGAUCUUCUCGAUCUAACAAAAAAGACAAAUCUGCCACAAAGCUUGAGAGCAUCUUCGGAUGCAGAGGCGGCAGCCUUCGGUGGCGCGAUAGCGCCAACGUUCUCGACUAUGACACGCAAAACGCGUGCUCCGUUGAAUGGAGUUUAUCAUG [A106G] | 0.398
8 | GGAUCUUCUCGAUCUAACAAAAAAGACAAAUCUGCCACAAAGCUUGAGAGCAUCUUCGGAUGCAGAGGCGGCAGCCUUCGGUGGCGCGAUAGCGCCAACGUUCUCGACUUUGACACGCAAAACGCGUGCUCCGUUGAAUGGAGUUUAUCAUG [A106G A110U] | -3.42
9 | GGAUCUUCUCGAUCUAACAAAAAAGACAAAUCUGCCACAAAGCUUGAGAGCAUCUUCGGAUGCAGAGGCGGCAGCCUUCGGUGGCGCGAUAGCGCCAACGUUCUCGACUAUGACUCGCAAAACGCGUGCUCCGUUGAAUGGAGUUUAUCAUG [A106G A115U] | -1.05
10 | GGAUCUUCUCGAUCUAACAAAAAAGACAAAUCUGCCACAAAGCUUGAGAGCAUCUUCGGAUGCAGAGGCGGCAGCCUUCGGUGGCGCGAUAGCGCCAACGUUCUCGACUAUGACACGCAAAACGCGUGCUCCGUUGAAUGGCGUUUAUCAUG [A106G A142C] | -0.922
11 | GGAUCUUCUCGAUCUAACAAAAAAGACAAAUCUGCCACAAAGCUUGAGAGCAUCUUCGGAUGCAGAGGCGGCAGCCUUCGGUGGCGCGAUAGCGCCAACGUUCUCUACUAUGACACGCAAAACGCGUGCUCCGUUGAAUGGAGUUUAUCAUG [A106U] | -0.23
12 | GGAUCUUCUCGAUCUAACAAAAAAGACAAAUCUGCCACAAAGCUUGAGAGCAUCUUCGGAUGCAGAGGCGGCAGCCUUCGGUGGCGCGAUAGCGCCAACGUUCUCACCUAUGACACGAAUAACGCGUGCUCCGUUGAAAGGAGUAUAUCAUG [A107C C118A A120U U139A U145A] | ≤ -4.2
13 | GGAUCUUCUCGAUCUAACAAAAAAGACAAAUCUGCCACAAAGCUUGAGAGCAUCUUCGGAUGCAGAGGCGGCAGCCUUCGGUGGCGCGAUAGCGCCAACGUUCUCAGCUAUGACACGCAAAACGCGAGCUCCGUUGAAUGGAGUUUAUCAUG [A107G U127A] | ≤ -4.2
14 | GGAUCUUCUCGAUCUAACAAAAAAGACAAAUCUGCCACAAAGCUUGAGAGCAUCUUCGGAUGCAGAGGCGGCAGCCUUCGGUGGCGCGAUAGCGCCAACGUUCUCAGCUAUGACACGCAAAACGCGCGCUCCGUUGACUGGAGUUUAUCAUG [A107G U127C A138C] | ≤ -4.2
15 | GGAUCUUCUCGAUCUAACAAAAAAGACAAAUCUGCCACAAAGCUUGAGAGCAUCUUCGGAUGCAGAGGCGGCAGCCUUCGGUGGCGCGAUAGCGCCAACGUUCUCAGCUAUGACACGCAAAACGCGGGCUCCGUUGAAUGGAGUUUAUCAUG [A107G U127G] | ≤ -4.2
16 | GGAUCUUCUCGAUCUAACAAAAAAGACAAAUCUGCCACAAAGCUUGAGAGCAUCUUCGGAUGCAGAGGCGGCAGCCUUCGGUGGCGCGAUAGCGCCAACGUUCUCAUCUUUGAUACGCAAAACGCGUGCUCCGUUGAAUGGAGUUUAUCAUG [A107U A110U C114U] | ≤ -4.2
17 | GGAUCUUCUCGAUCUAACAAAAAAGACAAAUCUGCCACAAAGCUUGAGAGCAUCUUCGGAUGCAGAGGCGGCAGCCUUCGGUGGCGCGAUAGCGCCAACGUUCUCAUCUAUGACACGCAAAACGCGUGCUCGGUUGAAUGGACUUUAUCAUG [A107U C132G G143C] | ≤ -4.2
18 | GGAUCUUCUCGAUCUAACAAAAAAGACAAAUCUGCCACAAAGCUUGAGAGCAUCUUCGGAUGCAGAGGCGGCAGCCUUCGGUGGCGCGAUAGCGCCAACGUUCUCAAGUAUGACACGCAAACCGCGUGCUCCGUUGAAUGGAGUUUAUCAUG [C108G A122C] | ≤ -4.2
19 | GGAUCUUCUCGAUCUAACAAAAAAGACAAAUCUGCCACAAAGCUUGAGAGCAUCUUCGGAUGCAGAGGCGGCAGCCUUCGGUGGCGCGAUAGCGCCAACGUUCUCAAGUAUGACACGCAAAACGCGUGCUGCGUUGAACGGAGUUGAUCAUG [C108G C131G U139C U146G] | ≤ -4.2
